Measured values as given in article PMC6856039 (Investigational New Drugs, 2019).

How the values were obtained:
[1] = system: T790M-negative NSCLC patients; type: in vivo, human; details: for Best overall response: Not evaluable / Best overall response: Partial response / Best overall response: Progression disease / Best overall response: Stable disease / Disease control rate / Objective response rate: T790M-negative
Excerpt: To assess the EGFR T790M mutation tumor status, mandatorily collected plasma from patients was processed, and isolated circulating cell-free DNA (cfDNA) was submitted for laboratory testing (Fluorescence Resonance Energy Transfer-based Preferential Formation Assay [F-PHFA] method) by central review. In some patients, collected tumor biopsies were submitted for EGFR genotyping (Therascreen® EGFR RGQ PCR kit [Qiagen, Venlo, Netherlands]).
(§1) Antitumor efficacy was based on objective tumor assessments according to the Response Evaluation Criteria in Solid Tumors criteria (version 1.1, 2009). Computed tomography scans were performed at baseline, every 6 weeks after starting administration, and at the time of discontinuation. The ORR, DCR, and PFS at each phase were assessed according to dose level and regimen. ORR was defined as the proportion of patients in which the best overall response was determined to be CR or PR and was calculated in patients with measurable lesions. DCR was defined as the proportion of patients in which the best overall response was determined to be CR, PR, or stable disease. PFS was defined as the median time from enrollment to PD or death from any cause.

[2] = system: patients with progressive disease after osimertinib therapy for NSCLC; experiment: Extension phase Cohort C: efficacy after osimertinib treatment; type: in vivo, human
Experimental: The extension phase was conducted in four cohorts (A, B, C, and D) to investigate the safety, PK, and antitumor activity observed with the MTD or lower dose determined in the dose escalation phase. Cohort A comprised patients with T790M mutation-positive NSCLC (confirmed by blood serum sampling) and who had received prior EGFR-TKI therapy as first-line treatment. Cohort B comprised and compared T790M mutation-positive and T790M mutation-negative NSCLC patients who had received at least two prior therapies, with the immediate prior treatment being gefitinib, erlotinib, or afatinib before allocation. Cohort C comprised patients with progressive disease (PD) after osimertinib therapy for NSCLC. Cohort D comprised NSCLC patients with G719X activating mutation in the EGFR.
as §1
In Cohort C (seven patients who had previously received osimertinib treatment), QD dosing was used because the incidence of interstitial lung disease and Grade 3 embolic and thrombotic events was lower with QD dosing versus BID dosing. Cohort C started with 8 mg/day QD and one patient was registered. Subsequently, the tolerability of 10 mg/day QD was confirmed, and six patients were registered to the 10 mg/day QD group. Of the seven patients in Cohort C, the best responses were stable disease in two patients, PD in three patients, and two patients were not evaluable.

[3] = system: tumor xenograft model; details: preclinical tumor xenograft model, unpublished data
[4] = system: wild-type EGFR; details: both in vivo and in vitro; cited from earlier work
[5] = seven patients, 8 or 10 mg/day QD

C=CC(=O)N[C@H]1CCc2c(-c3cnc4ccccc4c3)c3c(N)ncnc3n2C1 [TAS-121]
objective response rate (ORR) ([1]; T790M-negative patients, n = 16, all patients): 19% | Best overall response: Not evaluable ([1]; 4 mg/day QD, N = 5): 1 (20.0) n (%) | Best overall response: Partial response ([1]; 4 mg/day QD, N = 5): 0 (0.0) n (%) | Best overall response: Progression disease ([1]; 4 mg/day QD, N = 5): 2 (40.0) n (%) | Best overall response: Stable disease ([1]; 4 mg/day QD, N = 5): 2 (40.0) n (%) | Disease control rate ([1]; 4 mg/day QD, N = 5): 2 (40.0) n (%) | Objective response rate ([1]; 4 mg/day QD, N = 5): 0 (0.0) n (%) | Best overall response: Not evaluable ([1]; 8 mg/day BID, N = 1): 0 (0.0) n (%) | Best overall response: Partial response ([1]; 8 mg/day BID, N = 1): 0 (0.0) n (%) | Best overall response: Progression disease ([1]; 8 mg/day BID, N = 1): 0 (0.0) n (%) | Best overall response: Stable disease ([1]; 8 mg/day BID, N = 1): 1 (100.0) n (%) | Disease control rate ([1]; 8 mg/day BID, N = 1): 1 (100.0) n (%) | Objective response rate ([1]; 8 mg/day BID, N = 1): 0 (0.0) n (%) | Best overall response: Not evaluable ([1]; 8 mg/day QD, N = 4): 0 (0.0) n (%) | Best overall response: Partial response ([1]; 8 mg/day QD, N = 4): 2 (50.0) n (%) | Best overall response: Progression disease ([1]; 8 mg/day QD, N = 4): 1 (25.0) n (%) | Best overall response: Stable disease ([1]; 8 mg/day QD, N = 4): 1 (25.0) n (%) | Disease control rate ([1]; 8 mg/day QD, N = 4): 3 (75.0) n (%) | Objective response rate ([1]; 8 mg/day QD, N = 4): 2 (50.0) n (%) | Best overall response: Not evaluable ([1]; 10 mg/day QD, N = 3): 0 (0.0) n (%) | Best overall response: Partial response ([1]; 10 mg/day QD, N = 3): 1 (33.3) n (%) | Best overall response: Progression disease ([1]; 10 mg/day QD, N = 3): 0 (0.0) n (%) | Best overall response: Stable disease ([1]; 10 mg/day QD, N = 3): 2 (66.7) n (%) | Disease control rate ([1]; 10 mg/day QD, N = 3): 3 (100.0) n (%) | Objective response rate ([1]; 10 mg/day QD, N = 3): 1 (33.3) n (%) | Best overall response: Not evaluable ([1]; 12 mg/day BID, N = 1): 0 (0.0) n (%) | Best overall response: Partial response ([1]; 12 mg/day BID, N = 1): 0 (0.0) n (%) | Best overall response: Progression disease ([1]; 12 mg/day BID, N = 1): 0 (0.0) n (%) | Best overall response: Stable disease ([1]; 12 mg/day BID, N = 1): 1 (100.0) n (%) | Disease control rate ([1]; 12 mg/day BID, N = 1): 1 (100.0) n (%) | Objective response rate ([1]; 12 mg/day BID, N = 1): 0 (0.0) n (%) | Best overall response: Not evaluable ([1]; 12 mg/day QD, N = 1): 1 (100.0) n (%) | Best overall response: Partial response ([1]; 12 mg/day QD, N = 1): 0 (0.0) n (%) | Best overall response: Progression disease ([1]; 12 mg/day QD, N = 1): 0 (0.0) n (%) | Best overall response: Stable disease ([1]; 12 mg/day QD, N = 1): 0 (0.0) n (%) | Disease control rate ([1]; 12 mg/day QD, N = 1): 0 (0.0) n (%) | Objective response rate ([1]; 12 mg/day QD, N = 1): 0 (0.0) n (%) | Best overall response: Not evaluable ([1]; 16 mg/day QD, N = 1): 0 (0.0) n (%) | Best overall response: Partial response ([1]; 16 mg/day QD, N = 1): 0 (0.0) n (%) | Best overall response: Progression disease ([1]; 16 mg/day QD, N = 1): 1 (100.0) n (%) | Best overall response: Stable disease ([1]; 16 mg/day QD, N = 1): 0 (0.0) n (%) | Disease control rate ([1]; 16 mg/day QD, N = 1): 0 (0.0) n (%) | Objective response rate ([1]; 16 mg/day QD, N = 1): 0 (0.0) n (%) | Best overall response: Not evaluable ([1]; Total, N = 16): 2 (12.5) n (%) | Best overall response: Partial response ([1]; Total, N = 16): 3 (18.8) n (%) | Best overall response: Progression disease ([1]; Total, N = 16): 4 (25.0) n (%) | Best overall response: Stable disease ([1]; Total, N = 16): 7 (43.8) n (%) | Disease control rate ([1]; Total, N = 16): 10 (62.5) n (%) | Objective response rate ([1]; Total, N = 16): 3 (18.8) n (%) | best response PD, patients [2, 5]: three | best response not evaluable, patients [2, 5]: two | best response stable disease, patients [2, 5]: two | efficacy after progression during osimertinib treatment ([2]; seven registered patients): no clear evidence of efficacy | AUC of the effective dose [3]: 906 ng·h/mL | effect against wild-type EGFR [4]: moderate to no effect

Where two headings read alike, the source gives them in different places.
